Structures are written as SMILES. The whole screen tested about 310,000 compounds, of which about 2,200 (0.71%) showed an effect of 50% or more. The effect is printed as a negative number. The list shows a part of the results.

These results are taken from article PMC4336329 (PLoS ONE, 2015).

human ether-à-go-go-related gene (hERG) potassium channel, sequence (Q12809 whole entry, looked up): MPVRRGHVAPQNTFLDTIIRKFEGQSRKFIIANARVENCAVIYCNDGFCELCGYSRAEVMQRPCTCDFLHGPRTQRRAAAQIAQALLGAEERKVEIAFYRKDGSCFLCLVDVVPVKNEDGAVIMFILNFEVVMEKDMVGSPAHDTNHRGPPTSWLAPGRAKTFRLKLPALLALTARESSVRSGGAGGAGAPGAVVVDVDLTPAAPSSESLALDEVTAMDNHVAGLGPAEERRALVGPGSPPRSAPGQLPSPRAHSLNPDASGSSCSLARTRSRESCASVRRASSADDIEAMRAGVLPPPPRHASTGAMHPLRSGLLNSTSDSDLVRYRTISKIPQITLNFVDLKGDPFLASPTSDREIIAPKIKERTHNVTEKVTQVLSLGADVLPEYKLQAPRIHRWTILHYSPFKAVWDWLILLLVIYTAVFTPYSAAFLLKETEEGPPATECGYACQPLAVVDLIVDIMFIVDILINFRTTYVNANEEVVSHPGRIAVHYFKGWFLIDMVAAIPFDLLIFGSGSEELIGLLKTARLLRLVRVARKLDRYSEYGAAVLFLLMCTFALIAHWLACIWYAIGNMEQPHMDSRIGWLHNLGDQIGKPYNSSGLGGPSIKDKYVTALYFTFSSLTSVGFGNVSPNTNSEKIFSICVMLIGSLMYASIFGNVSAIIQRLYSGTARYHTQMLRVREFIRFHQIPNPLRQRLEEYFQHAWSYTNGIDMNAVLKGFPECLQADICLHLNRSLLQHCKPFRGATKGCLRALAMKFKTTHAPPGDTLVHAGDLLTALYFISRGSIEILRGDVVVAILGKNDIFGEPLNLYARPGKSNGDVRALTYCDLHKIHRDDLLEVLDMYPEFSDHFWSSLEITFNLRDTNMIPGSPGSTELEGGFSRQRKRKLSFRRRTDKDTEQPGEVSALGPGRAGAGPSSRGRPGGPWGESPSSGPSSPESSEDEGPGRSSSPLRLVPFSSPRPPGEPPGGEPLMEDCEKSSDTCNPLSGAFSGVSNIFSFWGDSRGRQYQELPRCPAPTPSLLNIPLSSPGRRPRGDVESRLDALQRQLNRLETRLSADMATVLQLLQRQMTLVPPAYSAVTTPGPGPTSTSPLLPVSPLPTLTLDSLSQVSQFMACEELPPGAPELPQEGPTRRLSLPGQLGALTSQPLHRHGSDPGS

The experiment addresses human ether-à-go-go-related gene (hERG) potassium channel (human, UniProt Q12809). The experiment is described as follows: primary screen, population patch clamp on CHO cells stably expressing hERG.
`CNc1nc(-c2ccccc2)cc(-c2ccccc2)n1`: the “hERG current change (%, negative = inhibition) at 1uM” value worked out at 13.7%.
As for `O=C1NN(c2cccc(Br)c2)C(=O)/C1=C/c1cccs1`, the “hERG current change (%, negative = inhibition) at 1uM” value worked out at 9.56%.
The value for `O=C(O)CN1C(=O)NC2NC(=O)NC21` (centres unmarked) was 11.8%; that for `COc1ccc(CCNC(=O)CCCCC(=O)NCCc2ccc(OC)c(OC)c2)cc1OC` was 3.97%; that for `Oc1ccc(C[C@H]2CNCCN2CCc2cccc(F)c2)cc1` was 7.34%.
As for `CC(C)COc1ccc(-c2nnc(-c3ccncc3)o2)cc1`, the figure is -5.97%; as for `Cc1cccc(N(CC(=O)N2CCOCC2)S(C)(=O)=O)c1C`, -10.9%.
For `NNS(=O)(=O)c1ccc(Sc2ccccn2)c([N+](=O)[O-])c1`, the “hERG current change (%, negative = inhibition) at 1uM” value is on record as 12.2%.
On to `CCn1c(Cc2ccc(OC)cc2)nnc1SCC(=O)NC1CC1`, for which the “hERG current change (%, negative = inhibition) at 1uM” value was 16.1%.
Consider `Cc1nn(C)cc1C(C)NCc1c(C(=O)N2CCCCCCC2)nc2ccc(Cl)cn12` (centres unmarked), for which the “hERG current change (%, negative = inhibition) at 1uM” value is reported as 12.3%.
As for `C/C(=N\Nc1nc(N)cc(Cl)n1)c1cccc([N+](=O)[O-])c1`, the figure is 11.9%; as for `O=C(O)c1ccc(/C=N/N2CCN(Cc3ccccc3)CC2)cc1`, 2.38%.
Regarding `CCOC(=O)c1c(-c2ccc(F)cc2)csc1NC(=O)C1CC=CCC1C(=O)O` (centres unmarked), the “hERG current change (%, negative = inhibition) at 1uM” value was found to be 0.606%.
The value for `CCOC(=O)c1c(C)[nH]c(C(=O)OC/C(O)=C(\C#N)c2nc3ccccc3[nH]2)c1C` was 0.203%; that for `C=CCn1c(COc2ccc(Cl)cc2)nnc1SCC(=O)NCC(=O)OCC` was -0.242%; that for `CC(=O)Nc1ccc(S(=O)(=O)Oc2cccc(/C=C3\SC(N)=NC3=O)c2)cc1` was 5.46%.
As for `CCOc1ccc(N2CC(C(=O)NCc3ccccc3)CC2=O)cc1` (centres unmarked), the figure is 9.84%; as for `CC1=CCC(C(=O)O)C(C(=O)Nc2ccc(-c3nc4ccc(C)cc4s3)cc2)C1` (centres unmarked), 9.75%.
`CCOC(=O)CCC(=O)Nc1ccc(S(=O)(=O)N2CCC(C)CC2)cc1`: the “hERG current change (%, negative = inhibition) at 1uM” value is listed as 9.42%.
For the compound `CCOC(=O)CC1COCCN1C(=O)c1ccc2oc(Cc3ccccc3)nc2c1` (centres unmarked), the “hERG current change (%, negative = inhibition) at 1uM” value is listed as 7.57%.
With `O=C(c1cc(NC(=O)C23CC4CC(CC(C4)C2)C3)cc(NC(=O)C23CC4CC(CC(C4)C2)C3)c1)N1CCCCC1`, the “hERG current change (%, negative = inhibition) at 1uM” value was 17%.
The value for `Cc1cccc(-n2c(C)cc(C(=O)NC3CCCCC3)c2C)c1` was 0.191%.
`C/C(=N/NS(=O)(=O)c1ccc(F)cc1)c1ccc(NC(=O)c2ccc(C)o2)cc1`: the “hERG current change (%, negative = inhibition) at 1uM” value worked out at 14.2%.
Turning to `COCCNC(=O)c1ccc(C)c(S(=O)(=O)Nc2ccc(C)cc2)c1`, the “hERG current change (%, negative = inhibition) at 1uM” value was 7.48%.
In the case of `O=C(CN(C(=O)CCC(=O)Nc1nccs1)c1ccc(F)cc1)NCCc1ccccc1`, the “hERG current change (%, negative = inhibition) at 1uM” value is on record as 16.3%.
`CCCN1C(=O)/C(=C2\SC(=S)N(c3c(C)n(C)n(-c4ccccc4)c3=O)C2=O)c2ccccc21`: the “hERG current change (%, negative = inhibition) at 1uM” value was determined as 11.9%.
For `CCCCNC(=O)CCNC(=O)c1ccc(C(C)(C)C)cc1`, the “hERG current change (%, negative = inhibition) at 1uM” value is -0.769%.
As for `Cc1ccc(NC(=O)CSCC(=O)NNC(=O)c2ccoc2C)cc1`, the “hERG current change (%, negative = inhibition) at 1uM” value turned out to be 0.47%.
For the compound `S=C(N/N=C/c1ccco1)NC1CC2CCC1C2` (centres unmarked), the “hERG current change (%, negative = inhibition) at 1uM” value turned out to be 8.84%.
With `O=C(NCc1cccnc1)c1cccc(S(=O)(=O)NCc2ccccc2)c1`, the “hERG current change (%, negative = inhibition) at 1uM” value is listed as -5.2%.
In the case of `O=C(CN1CCN(Cc2ccccc2)CC1)Nc1cccc(C(F)(F)F)c1`, the “hERG current change (%, negative = inhibition) at 1uM” value is reported as -27.8%.
The value for `O=C(Cc1ccccc1)NNC(=O)c1ccccc1C(=O)O` was 0.653%.
`CCNc1nc(SC(C)C(=O)OC)nc(N(C)C)n1` (centres unmarked): the “hERG current change (%, negative = inhibition) at 1uM” value was 18.2%.
For the compound `BrCCOCCOc1ccc2ccccc2c1`, the “hERG current change (%, negative = inhibition) at 1uM” value is 9.69%.
For the compound `O=C(O)Cc1n[nH]c(=O)c2ccccc12`, the “hERG current change (%, negative = inhibition) at 1uM” value turned out to be 12.3%.
Consider `CCOC(=O)Cn1nc(C)c(NC(=O)COc2ccc([N+](=O)[O-])cc2)c1C`, for which the “hERG current change (%, negative = inhibition) at 1uM” value is recorded as -14.4%.
On to `COc1ccc2cc(C(=O)C3CCCN(C(=O)CSc4nnc(C)o4)C3)ccc2c1` (centres unmarked), for which the “hERG current change (%, negative = inhibition) at 1uM” value is -20.7%.
The value for `CCOC(=O)c1sc(NC(=O)CSc2nnnn2-c2ccccc2)nc1C` was 11.2%.
As to `COc1cccc2c(=O)n(CC(=O)Nc3ccc(F)cc3)ccc12`, the “hERG current change (%, negative = inhibition) at 1uM” value was determined as 12.9%.
Regarding `S=c1nc(-c2ccccc2)[nH]c2ccc(Br)cc12`, the “hERG current change (%, negative = inhibition) at 1uM” value was 11.9%.
As to `Cn1cccc1/C=N/NC(=O)c1cc2ccccc2cc1O`, the “hERG current change (%, negative = inhibition) at 1uM” value came out at 8.23%.
On to `CCOc1ccc(-n2c(C)cc(/C=C3/C(=N)N4C(=NC3=O)SN=C4S(C)(=O)=O)c2C)cc1`, for which the “hERG current change (%, negative = inhibition) at 1uM” value was 3.42%.
With `CN1CCN(CC#CCC(O)(c2ccccc2)C2CCCC2)CC1.Cl` (centres unmarked), the “hERG current change (%, negative = inhibition) at 1uM” value is 10.1%.
With `COc1ccc(CN2CC(C(=O)NC3CCCCC3)CC2=O)cc1` (centres unmarked), the “hERG current change (%, negative = inhibition) at 1uM” value was 6.79%.
Turning to `CC1CN(C(=O)COC(=O)c2ccc(NC(=O)CC#N)cc2)CC(C)O1` (centres unmarked), the “hERG current change (%, negative = inhibition) at 1uM” value is reported as 8.63%.
On to `OCC(CO)(CO)N=Cc1cc(Br)ccc1O`, for which the “hERG current change (%, negative = inhibition) at 1uM” value is listed as 12.4%.
As for `CCOc1ccc(S(=O)(=O)NCCC(=O)NCc2ccc(OC)c(OC)c2)cc1`, the “hERG current change (%, negative = inhibition) at 1uM” value is reported as 0.905%.
As to `CSc1ccc(CNC(=O)CCn2ccc3cc(S(=O)(=O)N4CCCC4)ccc32)cc1`, the “hERG current change (%, negative = inhibition) at 1uM” value is on record as 7.87%.
Regarding `Cc1c(C(=O)c2ccccc2)c2ccccn2c1CCC#N`, the “hERG current change (%, negative = inhibition) at 1uM” value is -3.18%.
Take `O=C1c2ccccc2C(=O)N1CCCP(=O)(O)CCc1ccccc1`: the “hERG current change (%, negative = inhibition) at 1uM” value stood at 18.8%.
As to `Cc1cc(C)cc(N2C(=O)C3C4C=CC(C4)C3C2=O)c1` (centres unmarked), the “hERG current change (%, negative = inhibition) at 1uM” value is -1.64%.
For `COc1ccccc1C(=O)N1C(CC(=O)Nc2cc(Cl)ccc2C)C(=O)NC2CCCCC21` (centres unmarked), the “hERG current change (%, negative = inhibition) at 1uM” value turned out to be 22.8%.
Regarding `COc1cc(C)cc2oc(=O)c(CC(=O)N3CCN(C(=O)C4COc5ccccc5O4)CC3)c(C)c12` (centres unmarked), the “hERG current change (%, negative = inhibition) at 1uM” value was -0.752%.
Take `C/C=C/C(=O)OCC(=O)Nc1cccc(S(=O)(=O)NC2=NCCCCC2)c1`: the “hERG current change (%, negative = inhibition) at 1uM” value was -0.783%.
On to `COC(=O)CCc1c(C)c(C(=O)c2ccco2)c2ccccn12`, for which the “hERG current change (%, negative = inhibition) at 1uM” value was found to be 10.7%.
As to `CCOC(=O)c1c(C)[nH]c(C)c1C(=O)CSc1nnc(-c2cc(OC)c(OC)c(OC)c2)o1`, the “hERG current change (%, negative = inhibition) at 1uM” value was determined as 12.5%.
